PubChem BioAssay AID1460 (National Center for Advancing Translational Sciences (NCATS), 2008)
The campaign covered roughly 270,000 compounds. About 5,800 (2.1%) were called active. The inconclusive results got no clear call from the source; some entries with a clear call stand among them for comparison. Calls come from the whole dose curve; as a rule, active = well fitted inhibition curve with a large enough effect; inconclusive = small, poorly fitted or top-dose-only effect; inactive = flat fitted curve, though single readings scatter. Potencies beside an inconclusive call are fits to weak or partial responses and may not hold up.

Target: Microtubule-associated protein tau (Homo sapiens) (UniProt P10636)
Sequence of UniProt P10636 (P10636 whole entry, looked up): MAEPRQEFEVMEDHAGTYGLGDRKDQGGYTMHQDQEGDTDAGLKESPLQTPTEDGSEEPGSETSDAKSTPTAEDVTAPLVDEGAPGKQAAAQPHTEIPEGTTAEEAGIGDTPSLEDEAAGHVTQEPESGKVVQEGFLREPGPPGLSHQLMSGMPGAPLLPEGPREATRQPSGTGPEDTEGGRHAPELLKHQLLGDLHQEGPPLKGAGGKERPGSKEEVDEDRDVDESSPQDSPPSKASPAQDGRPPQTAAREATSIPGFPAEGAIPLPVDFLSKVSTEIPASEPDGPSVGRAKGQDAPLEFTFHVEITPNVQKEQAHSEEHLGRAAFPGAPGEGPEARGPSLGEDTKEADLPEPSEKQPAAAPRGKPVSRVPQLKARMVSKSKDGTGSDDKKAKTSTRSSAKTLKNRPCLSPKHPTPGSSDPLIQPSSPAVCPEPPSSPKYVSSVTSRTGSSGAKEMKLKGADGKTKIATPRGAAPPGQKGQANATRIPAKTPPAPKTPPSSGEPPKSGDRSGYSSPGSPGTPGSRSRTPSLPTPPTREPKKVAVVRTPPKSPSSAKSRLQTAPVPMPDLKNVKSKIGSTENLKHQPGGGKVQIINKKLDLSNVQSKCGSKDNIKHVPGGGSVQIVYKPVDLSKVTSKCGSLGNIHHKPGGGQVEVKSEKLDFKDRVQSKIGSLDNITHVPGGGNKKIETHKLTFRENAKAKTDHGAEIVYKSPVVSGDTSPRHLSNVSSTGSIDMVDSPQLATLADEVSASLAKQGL
Experiment: qHTS for Inhibitors of Tau Fibril Formation, Thioflavin T Binding; note: nearly all actives have a fitted effect of over 55% in size
Conditions: recombinant tau K18 P301L (four-repeat tau fragment), heparin-induced fibrillization, ThT fluorescence; series mostly up to 57.4 µM; activity, negative = inhibition: at the top concentration
Method in brief: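 Heparin-induced fibrillization of the P301L-mutant K18 repeat-domain fragment of human tau was followed by ThT binding in quantitative high-throughput format.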
% is set by controls: 0 for no effect and ±100 for the full control effect; potency is the fitted concentration of half-maximal effect; tags give direction and shape of the fitted curve.

Row | SMILES | Potency | activity, negative = inhibition
1 | O=S(=O)(Nc1nc2cc3c(cc2nc1Cl)OCCO3)c1ccccc1 | inconclusive: 15.8 µM [inhibitor, partial curve] | 
2 | Cc1ccccc1NCC(=O)N/N=C\C=C\c1cccc([N+](=O)[O-])c1 | inconclusive: 20 µM [inhibitor, partial curve] | 
3 | CC(CCc1ccccc1)NC(=O)COC(=O)c1cc(NS(=O)(=O)c2ccc(Cl)c([N+](=O)[O-])c2)ccc1O (stereo not given) | inconclusive: 25.1 µM [inhibitor, single point] | 
4 | COC(=O)c1sc(SC)c(S(=O)(=O)C(C)C)c1N/N=C(\C#N)C(=O)c1ccccc1 | inconclusive: 22.4 µM [inhibitor, partial curve] | 
5 | Cc1ccc(CNC(=O)CCc2c(C)nn(-c3ccc(N4CCCC4)nn3)c2C)cc1 |  | inactive: -9.71%
6 | COc1ccc(/C=C/c2nc(C#N)c(NC3CCCCC3)o2)cc1OC | inconclusive: 0.251 µM [inhibitor, full curve] | 
7 | CC(Nc1nc(-c2ccc3c(c2)NC(=O)CO3)cs1)c1ccccc1 (stereo not given) | inconclusive: 14.1 µM [inhibitor, partial curve] | 
8 | Cc1oc2c(O)c(O)ccc2c(=O)c1-c1ccccc1 | inconclusive: 31.6 µM [inhibitor, partial curve] | 
9 | COc1cc(C(C[N+](=O)[O-])c2c(N)n(C)c(=O)n(C)c2=O)ccc1O (stereo not given) | inconclusive: 25.1 µM [inhibitor, partial curve, poor fit] | 
10 | COC(=O)c1ccc(CSc2nc3cc(Cl)ccc3o2)cc1 | inconclusive: 5.62 µM [inhibitor, partial curve] | 
11 | CCOc1ccccc1Nc1nnc(SCC(=O)Nc2nc(-c3ccc(OC)cc3)cs2)s1 |  | inactive: -14.8%
12 | CCC(=O)OCC(=O)C1(OC(=O)CC)C(C)CC2C3CCC4=CC(=O)C=CC4(C)C3(Cl)C(O)CC21C (stereo not given) |  | inactive: -10.1%
13 | O=[N+]([O-])c1ccc(N/N=C/c2c[nH]c3ccccc23)cc1 | active: 3.16 µM | 
14 | CC(=O)c1c(N2CCOCC2)nc(=S)n(-c2ccc([N+](=O)[O-])cc2)c1C |  | inactive: -8.15%
15 | COc1ccc(N2CCN(C(=O)c3ccc(F)cc3)CC2)c([N+](=O)[O-])c1 |  | inactive: 2.17%
16 | COC(=O)N/N=C/c1ccccc1OCCOc1ccc(OC)cc1 |  | inactive: -11.5%
17 | COc1ccccc1C(=O)NC(=S)Nc1ccc(NC(=O)c2cccs2)cc1 | inconclusive: 0.631 µM [inhibitor, full curve] | 
18 | O=[N+]([O-])c1ccc(N2CCCC2)nc1N1CCCC1 | inconclusive: 17.8 µM [inhibitor, partial curve] | 
19 | O=C(/C=C/c1ccc(Cl)cc1)NC(=S)NN1CCCCC1c1cccnc1 (stereo not given) | inconclusive: 39.8 µM [inhibitor, single point] | 
20 | Cc1nc2ccccn2c(=O)c1NC(=O)c1ccccc1Cl |  | inactive: 0.862%
21 | Cc1ccc(N=Cc2sc(O)c3ccccc23)cc1 |  | inactive: -8.09%
22 | O=[N+]([O-])c1cccc2c(Cl)ccnc12 |  | inactive: -8.21%
23 | Cc1ccc(C)c(NC(=O)C(=O)NCCc2csc(-c3cccc(F)c3)n2)c1 |  | inactive: -2.73%

Row | SMILES | Potency | activity, negative = inhibition
24 | O=C(c1ccccc1)N1CCN(Cc2cccc(Oc3ccccc3)c2)CC1 |  | inactive: -15%
25 | Cn1c(=O)cc(SCC(=O)Nc2cccc(C#N)c2)c2ccc(Cl)cc21 |  | inactive: 12.9%
26 | COc1ccc(C(=O)/C=C/C(=O)N(CC(=O)NC2CCCCC2)Cc2ccccc2OC)c(O)c1 | inconclusive: 39.8 µM [inhibitor, single point] | 
27 | O=C(N/N=C/c1ccc(OC(=O)c2ccco2)cc1)c1ccccn1 | inconclusive: 17.8 µM [inhibitor, partial curve] | 
28 | COC(=O)/C=c1/s/c(=C(/C#N)C(=O)N2CCOCC2)n(-c2ccccc2)c1=O | inconclusive: 20 µM [inhibitor, partial curve, poor fit] | 
29 | Cc1cccc(NC(=O)Cn2cnc3c(oc4ccccc43)c2=O)c1C | inconclusive: 35.5 µM [activator, single point] | 
30 | Cc1cc(C)cc(N(CCC(=O)Nc2nnc(C3CC3)s2)S(=O)(=O)c2ccc(Cl)cc2)c1 |  | inactive: -3.41%
31 | Cc1cc(C)cc(Oc2nc(-c3ccccc3)cc(C)c2S(C)(=O)=O)c1 |  | inactive: 1.27%
32 | COC(=O)C1CCN(c2ccc(C(N)=O)cc2[N+](=O)[O-])CC1 | inconclusive: 39.8 µM [inhibitor, single point] | 
33 | O=C(CSc1nnc(CNC(=O)c2ccco2)o1)c1ccccc1 |  | inactive: -5.32%
34 | Cc1cc(C(F)(F)F)nn1Cc1n[nH]c(=S)n1-c1ccc(F)cc1 |  | inactive: -4.41%
35 | COc1cccc(NC(=O)CCc2nc(-c3cc(OC)c(OC)c(OC)c3)no2)c1 | inconclusive: 10 µM [inhibitor, partial curve] | 
36 | O=C(N=Nc1c(O)[nH]c2ccc([N+](=O)[O-])cc12)c1ccccc1[N+](=O)[O-] | inconclusive: 17.8 µM [inhibitor, partial curve] | 
37 | CCOc1cc(N2CCOCC2)c(OCC)cc1NC(=O)CN1CCCC1 |  | inactive: -1.56%
38 | COc1ccc(OCC#CCN2CC(C)OC(C)C2)cc1 (stereo not given) |  | inactive: -6.02%
39 | COc1ccc(Cl)cc1C(=O)NCC(c1ccc(N(C)C)cc1)N1CCOCC1 (stereo not given) | inconclusive: 39.8 µM [inhibitor, single point] | 
40 | CC(C)CC(=O)O/N=C1\C(=O)N(Cc2ccc(Cl)cc2)c2ccc([N+](=O)[O-])cc21 | inconclusive: 22.4 µM [inhibitor, partial curve] | 
41 | Cc1oc2c(c1C(=O)Nc1ccc(Cl)cc1F)C1=NCCN1C=N2 | inconclusive: 44.7 µM [inhibitor, single point] | 
42 | Cc1c(C(C)(C(=O)O)c2c(C)n(C)c3ccccc23)c2ccccc2n1C | inconclusive: 44.7 µM [inhibitor, single point] | 
43 | S=C(Nc1ccc(Cl)cc1)c1nc2ccccc2[nH]1 | inconclusive: 5.01 µM [inhibitor, partial curve] | 
44 | COc1ccc(Nc2nnc(-c3ccc(C)c(S(=O)(=O)N4CCN(C)CC4)c3)c3ccccc23)cc1 | inconclusive: 14.1 µM [inhibitor, partial curve, poor fit] | 
45 | COc1ccccc1NC(=O)C(=O)N/N=C(\C)CC(=O)Nc1ccccn1 | inconclusive: 10 µM [inhibitor, partial curve] | 
